From patent US7595299B2, “Peptides as NS3-serine protease inhibitors of hepatitis C virus” (priority 2000, dated 2009) come the findings set out here.

The structures appear in SMILES notation. Starred links: 1 amine or outer side, 2 acyl side, 3 side chain; linkers in the order of their positions; H or OH if unused. Non-standard residues stand in square brackets, D forms with d. Residues, ends and D or L forms follow the SMILES beside them. *: point of attachment. X1 = O=C(c1ccc(N2CCN([*:1])CC2)nc1)[*:2]; Isobutyloxycarbonyl = CC(C)COC(=O)*; X2 = O=C(C(=O)[*:2])C(CC1CC1)N[*:1]; X7 = O=C(C(=O)[*:2])C(N[*:1])C1CC1; X30 = O=C(C(OC1CCCCO1)c1ccccc1)*; X4 = CCCC(N[*:1])C(=O)C(=O)[*:2]; X34 = CC(C)(C(=O)*)c1ccc(Cl)cc1; Ala(cPr) = N[CH](CC1CC1)C(=O)O; Gly(cPr) = N[CH](C(=O)O)C1CC1; Chg = N[CH](C(=O)O)C1CCCCC1; Phg = N[CH](C(=O)O)c1ccccc1; Ethoxycarbonyl = CCOC(=O)*; X12 = O=C(C(O)c1ccccc1)*; X24 = O=C(Cc1ccsc1)*; N(Me)OMe = CON(C)*; OtBu = CC(C)(C)O*

The assay addresses Recombinant heterodimeric HCV NS3/NS4A protease (strain 1a) (Hepatitis C virus genotype 1a, UniProt P27958). Kind of assay: biochemical. The conditions noted are these: HCV protease continuous assay, Table 1; read-out: Ki* Range.

A word on the Ki: it is a dissociation constant, usually derived from enzyme kinetics or from competition with a known ligand.

On to `CCCC(NC(=O)[C@H](CC(C)C)NC(=O)[C@@H](NC(=O)Cc1ccsc1)C1CCCCC1)C(=O)C(=O)NCC(=O)N[C@H](C(=O)O)c1ccccc1` (stereo partly shown) [Example 101] (X24-[Chg]L[X4]G[Phg]-OH), for which the Ki fell in the range of 101 to 1000 nM.
In the case of `CCCC(NC(=O)[C@H](CC(C)C)NC(=O)[C@@H](NC(=O)C(C)(C)c1ccc(Cl)cc1)C1CCCCC1)C(=O)C(=O)NCC(=O)N[C@H](C(=O)O)c1ccccc1` (stereo partly shown) [Example 102] (X34-[Chg]L[X4]G[Phg]-OH), the Ki was in the range of 101 to 1000 nM.
Consider `CC(C)COC(=O)NC(C(=O)NC(CC1CC1)C(=O)NC(C(=O)C(=O)NCC(=O)NC(C(=O)OC(C)(C)C)c1ccccc1)C1CC1)C1CCCCC1` (stereo not shown) [Example 103] (Isobutyloxycarbonyl-[Chg][Ala(cPr)][X7]G[Phg]-OtBu; configuration not given here), for which the Ki was greater than 1000 nM.
The result for `CC(C)COC(=O)NC(C(=O)NC(CC1CC1)C(=O)NC(C(=O)C(=O)NCC(=O)NC(C(=O)O)c1ccccc1)C1CC1)C1CCCCC1` (stereo not shown) [Example 104] (Isobutyloxycarbonyl-[Chg][Ala(cPr)][X7]G[Phg]-OH; configuration not given here) reads greater than 1000 nM; that for `COC(=O)C(NC(=O)CNC(=O)C(=O)C(CC1CC1)NC(=O)C(CC1CC1)NC(=O)C(NC(=O)OCC(C)C)C1CCCCC1)c1ccccc1` (stereo not shown) [Example 105] (Isobutyloxycarbonyl-[Chg][Ala(cPr)][X2]G[Phg]-OMe; configuration not given here), 101 to 1000 nM.
The result for `CC(C)COC(=O)NC(C(=O)NC(CC1CC1)C(=O)NC(CC1CC1)C(=O)C(=O)NCC(=O)NC(C(N)=O)c1ccccc1)C1CCCCC1` (stereo not shown) [Example 106] (Isobutyloxycarbonyl-[Chg][Ala(cPr)][X2]G[Phg]-NH2; configuration not given here) reads less than 100 nM; that for `CCOC(=O)N1CCN(c2ccc(C(=O)NC(C(=O)NC(CC3CC3)C(=O)NC(CC3CC3)C(=O)C(=O)NCC(=O)NC(C(=O)OC(C)(C)C)c3ccccc3)C3CCCCC3)cn2)CC1` (stereo not shown) [Example 107] (Ethoxycarbonyl-[X1][Chg][Ala(cPr)][X2]G[Phg]-OtBu; configuration not given here), greater than 1000 nM.
The result for `CCOC(=O)N1CCN(c2ccc(C(=O)NC(C(=O)NC(CC3CC3)C(=O)NC(CC3CC3)C(=O)C(=O)NCC(=O)NC(C(=O)O)c3ccccc3)C3CCCCC3)cn2)CC1` (stereo not shown) [Example 108] (Ethoxycarbonyl-[X1][Chg][Ala(cPr)][X2]G[Phg]-OH; configuration not given here) reads 101 to 1000 nM; that for `CC(C)(C)OC(=O)C(NC(=O)CNC(=O)C(=O)C(CC1CC1)NC(=O)C(CC1CC1)NC(=O)C(NC(=O)C(OC1CCCCO1)c1ccccc1)C1CCCCC1)c1ccccc1` (stereo not shown) [Example 109] (X30-[Chg][Ala(cPr)][X2]G[Phg]-OtBu; configuration not given here), 101 to 1000 nM.
As for `O=C(CNC(=O)C(=O)C(CC1CC1)NC(=O)C(CC1CC1)NC(=O)C(NC(=O)C(O)c1ccccc1)C1CCCCC1)NC(C(=O)O)c1ccccc1` (stereo not shown) [Example 110] (X12-[Chg][Ala(cPr)][X2]G[Phg]-OH; configuration not given here), the Ki is less than 100 nM.
Consider `CC(C)COC(=O)NC(C(=O)NC(CC1CC1)C(=O)NC(CC1CC1)C(=O)C(=O)NCC(=O)NC(C(=O)OC(C)(C)C)c1ccccc1)C1CC1` (stereo not shown) [Example 111] (Isobutyloxycarbonyl-[Gly(cPr)][Ala(cPr)][X2]G[Phg]-OtBu; configuration not given here), for which the Ki was in the range of 101 to 1000 nM.
The result for `CC(C)COC(=O)NC(C(=O)NC(CC1CC1)C(=O)NC(CC1CC1)C(=O)C(=O)NCC(=O)NC(C(=O)O)c1ccccc1)C1CC1` (stereo not shown) [Example 112] (Isobutyloxycarbonyl-[Gly(cPr)][Ala(cPr)][X2]G[Phg]-OH; configuration not given here) reads 101 to 1000 nM; that for `CON(C)C(=O)C(NC(=O)CNC(=O)C(=O)C(CC1CC1)NC(=O)C(CC1CC1)NC(=O)C(NC(=O)OCC(C)C)C1CCCCC1)c1ccccc1` (stereo not shown) [Example 113] (Isobutyloxycarbonyl-[Chg][Ala(cPr)][X2]G[Phg]-{N(Me)OMe}; configuration not given here), less than 100 nM.
